Test results published in paper PMC7054686.
Results are given in words; binding and its absence hold for the method and conditions named. Binding seen in cells or lysates may run through a third protein. Some results given as binding are weak or reduced against the parent protein; the word gives no strength.

Amino acid sequences for entries named in this document (tags omitted). A change or cut given only in a name is not applied to a line headed by its entry. Residues count along the entry.
UniProt O14763, residues 56-440: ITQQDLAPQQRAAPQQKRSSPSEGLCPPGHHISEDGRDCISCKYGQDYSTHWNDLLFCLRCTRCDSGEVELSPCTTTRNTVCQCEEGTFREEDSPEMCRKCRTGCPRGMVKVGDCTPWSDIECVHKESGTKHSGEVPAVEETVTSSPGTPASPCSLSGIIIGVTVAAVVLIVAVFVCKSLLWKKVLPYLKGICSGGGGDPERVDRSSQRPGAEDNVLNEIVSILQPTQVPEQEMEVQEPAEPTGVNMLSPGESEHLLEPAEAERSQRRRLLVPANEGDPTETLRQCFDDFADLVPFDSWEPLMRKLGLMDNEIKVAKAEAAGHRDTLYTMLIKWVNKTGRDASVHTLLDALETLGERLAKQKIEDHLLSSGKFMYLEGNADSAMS
UniProt Q13158: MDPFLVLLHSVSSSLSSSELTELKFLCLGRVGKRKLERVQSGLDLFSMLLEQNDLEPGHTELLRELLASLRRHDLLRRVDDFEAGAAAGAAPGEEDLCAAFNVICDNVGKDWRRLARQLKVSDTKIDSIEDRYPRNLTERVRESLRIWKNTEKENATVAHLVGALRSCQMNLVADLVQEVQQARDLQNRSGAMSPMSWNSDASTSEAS

The substances below were run against TRAIL‐R2 (human (endogenous in A549, HCT116, DU145, PC3, U20S, HAP1)) (UniProt O14763) (assay: co-IP; TRAIL-R2 DISC IP: 75 μl Dynabeads coated with AMG655 (anti-TRAIL-R2; 1×, 2× or 4×) added to 5 × 10^6 cells for the indicated time (30-180 min, HAP1 up to 9 h); lysis in DISC IP buffer (0.2% NP-40, 20 mM Tris-HCl pH 7.4, 150 mM NaCl, 10% glycerol), five washes, Western blot; also after zVAD-fmk, caspase-8 or FLIP siRNA, MS-275, CASP10 or CFLAR knock-out).

binding | Substance
binds | Flag‐tagged FADD (WT) (from UniProt Q13158 1-208)
no binding | Flag‐tagged FADD with point mutation at His9 (H9G) (from UniProt Q13158 1-208)
no binding | Flag‐tagged FADD with point mutation at Phe25 (F25A) (from UniProt Q13158 1-208)

Substance | binding
FADD (Fas‐associated protein with death domain) (from UniProt Q13158 1-208) | binds
